The record followed here is the RNAGym collection of RNA variant scans (doi:10.1073/pnas.2313332121).

Variants at the background level are over-represented here.

B1: TPR 5TU (parent)
chain: GGAUCUUCUCGAUCUAACAAAAAAGACAAAUCUGCCACAAAGCUUGAGAGCAUCUUCGGAUGCAGAGGCGGCAGCCUUCGGUGGCGCGAUAGCGCCAACGUUCUCAACUAUGACACGCAAAACGCGUGCUCCGUUGAAUGGAGUUUAUCAUG

The variants in the series derive from B1. Description: polymerase ribozyme fitness, log enrichment relative to wild type (log ratio); higher = more active; in vitro selection for triplet polymerase activity. The method, boiled down:
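Genotype fitness is the logarithm of its enrichment divided by wild-type enrichment, using inverse-variance-weighted averages of replicates. That logarithm is base 2. Enrichment was measured by Illumina sequencing of input and output libraries from one triplicate in vitro selection round, with frozen incubation at −7 °C, on PCR-built, transcribed mutant libraries of each subunit of a heterodimeric triplet polymerase ribozyme, retaining genotypes with ≥10 input reads and ≥1 read per output.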
On to GGAUCUUCUCGAUCUAACAACAAAGACAAAUCUGCCACAAAGCUUGAGAGCAACUUCGGAUGCAGAGGCGGCAGCCUUCGGUGGAGCGAUAGCGCCAACGUUCUCAACUAUGACACGCAAAACGCGUGCUCCGUUGAAUGGAGUUUAUCAUG [A21C U53A C85A], for which the “polymerase ribozyme fitness (log ratio)” value was -2.67.

On to GGAUCUUCUCGAUCUAACAAGCUAGACAAAUCUGCCACAAAGCAUGAGAGCAUCUUCGGAUGCAGAGGCGGCAGCCUUCGGUGGCGCGAUAGCGCCAACGUUCUCAACAAUGACACGCAAAACCCUUGCUCCGUUGAAUGGAGUUUAUCAUG [A21G A22C A23U U44A U109A G124C G126U], for which the “polymerase ribozyme fitness (log ratio)” value was not above -4.2.

Turning to GGAUCUUCUCGAUCUAACAACAAAGACAAAUCUGCCACAAAGCUUGAGAGCAUCUUCGGAUGCAGACGCGGCAGCCUUCGGUGACGCGAUAGCGCCAACGUUCUCAACUAUGACACGCAAAACGCGUGCUCCGUUGAAAUGAGUUUAUCAUG [A21C G67C G84A U139A G140U], the “polymerase ribozyme fitness (log ratio)” value was not above -4.2.

GGAUCUUCUCGAUCUAACAACAAAGACAAAUCUGCCACAAAGCUUGAGAGCAUCUUCGGAUGCAGAGGCGGCAGCCUUCGGUCGCGAGAUAUCGCCAACGUUCUCAACUAUGACAGGCAAAACGCGUGCUCCGUUGAAUGGAGUUUAUCAUG [A21C G83C C87A G92U C116G]: the “polymerase ribozyme fitness (log ratio)” value is -1.27.

Regarding GGAUCUUCUCGAUCUAACAAGAAAGACAAAUCUGCCACAAAGCUUGAGCGCAUCUUCGGAUGCACAGGCGGCAGCCUAUGGUUGCGCGAUAGCGCCAACGUUCUCAACUAUGACACGCAAAACGCGUGCUCCGUUGAAUGGACUUUAUCAUG [A21G A49C G65C U78A C79U G83U G143C], the “polymerase ribozyme fitness (log ratio)” value was not above -4.2.

As for GGAUCUUCUCGAUCUAACAAGAAAGACAAAUCUGCCUCAAAGCUUGAGAGCAUCUUCGACUGCAGAGGCGGCAGCCUUCGGUGGCGCGAUAGCGCCAACGUUCUCAACUAUGACACGCAAAACGCGUGCUCCGUUGAAUGGAGUUUAUCAUG [A21G A37U G59A A60C], the “polymerase ribozyme fitness (log ratio)” value is -3.22. As to GGAUCUUCUCGAUCUAACAAGAACGACAAAUCUGCCACAAAGCUUGAGAGCAUCUUCGGAUGCAGAGGCGGCAGCCUUCGGUCGCGCGAUAGCGCCAACGUUUUCAACUAUGACACGCAAAACGCGUGCUCCGUUGAAUGGAGUUUAUCAUG [A21G A24C G83C C103U], the “polymerase ribozyme fitness (log ratio)” value is not above -4.2. Regarding GGAUCUUCUCGAUCUAACAAGAAAGACAAAUCUGCCACAAAGCUUGCGAGCAUCUUCGGAUGCAGAGGCGGCAGCCUUCGAUGGCGCAAUAGCGCCAACGUUCUCAACUAUGACACGCAAAACGCGUGCUCCGUUGAAUGGAGUUUAUCAUG [A21G A47C G81A G88A], the “polymerase ribozyme fitness (log ratio)” value was not above -4.2.

In the case of GGAUCUUCUCGAUCUAACAAGAAAGACAAAUCUGCCACAAAGCUUGGGAGCAUCUUCGGAUGCAGAGGCGGCAGCCUUCGGUGUCGCGAUAGCGCCAACGUUCUCAACUAUGACACGCAAAAAGCGUGCUCCGUUGAAUGGCGUUUAUCAUG [A21G A47G G84U C123A A142C], the “polymerase ribozyme fitness (log ratio)” value is not above -4.2. To GGAUCUUCUCGAUCUAACAAGAAAGACAAAUCUGCCACCAAGCUUGAGAUCAUCUUCGGAUGCAGAGGCGGCAGCCUUCGGUGGCGCGAUAGAGCCAACGUUCUCAACUAUGACACGCAGAACGCGUGCUCCGUUGAGUGGAAUUUAUCAUG [A21G A39C G50U C93A A120G A138G G143A] belongs not above -4.2; to GGAUCUUCUCGAUCUAACAACAAAGACAAAACAGCCAUAAAGCUUGAGAGCAUCUUCGCAUGCAGAGACGGCAGCCUUCGGUGGCGCGAUAGCGCCAACGUUCUCAACUAUGACACGCAAAACGCGUGCUCCGUUGAAUGGAGUUUAUCAUG [A21C U31A U33A C38U G59C G68A], not above -4.2; to GGAUCUUCUCGAUCUAACAACAAAGACAAAUCUGCCACAAAGCUUGAGAGCAUCUUCGGAUCCAGAGGCGGCAGCCUUCGGUGGCGCGAUAGCGCCAACGUUCUCAACUAUGACACGCAAAACGCGUGCUCCGUUGAAUGGAGUUUAUCAUG [A21C G62C], -0.587. With GGAUCUUCUCGAUCUAACAACAAAGACAAAUCUGCCACAAAGCUUGAGAGCAUCUUCGGAUGCAGAGACGGCAGCCUUCGGUGGCGCGAGAGCUCCAACGUUCUCAACUAUGACAAGCAAAACGCGUGCUCCGUUGAAUGGAGUUUAUCAUG [A21C G68A U90G G94U C116A], the “polymerase ribozyme fitness (log ratio)” value is not above -4.2. Under GGAUCUUCUCGAUCUAACAAGAAAGACAAUUCUGCCACAAAGCUUGAGAGCAUCUUCGGCUGCAGAGGCGGCAGCCGUCGGUGGAGCGAUAGCUCCAACGUUCUCAACUAUGACACUCAAAACGCGUGCUCCGUUGAAUGGAGUUUAUCGUG [A21G A30U A60C U77G C85A G94U G117U A150G] stands not above -4.2; under GGAUCUUCUCGAUCUAACAACAAAGACAAAUCUGCCACAAAGCUUGAGAGCAUCUUCGUAUGCAGAGGCGGCAGCCUUGGGAGGCGCGAUAGCGCCAACGUUCUCAACUAUGACACGCAAAACGCGUGCUCCGUUGAAUGGAGUUUAUCAUG [A21C G59U C79G U82A], not above -4.2. To GGAUCUUCUCGAUCUAACAAGAAAGACAAGUCUGCCACAAAGCUUGAGAGCAUCUUCGGAUGCAGAGGCGGCAGCCUUCGGUGGCGCGCUAGCGCCAACGUUCUCAACUAUGACACGCAAAACGCGUGCUCCGUUGAAUGGAGUUUAUCAUG [A21G A30G A89C] belongs not above -4.2; to GGAUCUUCUCGAUCUAACAACAAAGACAAAUCUGCCACAAAGCUUGAGAGCAUCUUCGGAUGCAGAGCCGGCAGCCUUCGGUGGCGCGAUAGCGCCAACGUUCUCAACUAUGACACGCAAAACGCGUGCUCCGUUGAAUGGGGUUUAUCAUG [A21C G68C A142G], -4.13; to GGAUCUUCUCGAUCUAACAACAAAGACAAAUCUGCCACAAAGCGUGAGAGCAUCUUCGGAUGCACAGGCGGCAGCCUUCGGUGGCGCGAUAGCACCAAGGUUCUCAACUAUGACACGCAAAACGCGUGCUCCGUUGAAUGGAGUUUAUCAUG [A21C U44G G65C G94A C99G], not above -4.2. Under GGAUCUUCUCGAUCUAACAACAAAGACAAAGCUGCCACAAAGCUUGAGCCCAUCUUCGGAUGCAGAGGCGGCAGCCUUCGGUGGCGCGAUAGAGCCAACGUUCUUAACUAUGACACGCAAAACGAGUGCUCCGAUGAAUGGAGUUUAUCAUG [A21C U31G A49C G50C C93A C105U C125A U134A] stands not above -4.2.
